# Screen size: about 94,000 compounds; about 4,000 (4.3%) were called active. Inconclusive results, whose numbers are uncertain, are shown with a selection of clear calls. Calls follow the shape of the dose curve; as a rule, active = well fitted inhibition curve with a large enough effect; inconclusive = small, poorly fitted or top-dose-only effect; inactive = no such curve, though single readings can be large or run the other way. Potencies of inconclusive entries are doubtful fits and often do not repeat.
# Assay: Cytotoxic Profiling in NIH 3T3 Cell Line of Diverse Libraries Using Quantitative High-Throughput Screening; also: nearly all actives have a fitted effect of over 55% in size
# Details: NIH 3T3 viability, CellTiter-Glo ATP luminescence, 48-72 h; series mostly up to 96.7 µM
# Outline: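 ATP-dependent luminescence (CellTiter-Glo) served as the viability signal for NIH 3T3 cells treated with compound for 48 or 72 hr at 37 °C.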
# Potency is read from the fitted curve at half-maximal effect; tags tell the direction and shape of the fitted curve.
row,SMILES,Potency
1,CCNC(=O)O[C@@H]1CO[C@H]2[C@@H]1OC[C@@H]2NC(=S)Nc1cccc2ccccc12,active: 79.4 µM
2,Cc1noc(-c2cccc(OC3CN(C(=O)c4cccc5[nH]ccc45)C3)c2)n1,"inconclusive: 39.8 µM [inhibitor, partial curve, poor fit]"
3,C[S+](=O)([O-])N1CC2(CCCN(Cc3ccc(Cl)cc3)C2)Cc2ccccc21 (configuration not stated),"inconclusive: 70.8 µM [inhibitor, single point]"
4,O=C(COc1ccc(F)cc1)N1CCCCC1c1nc(CCOCC2CCCC2)no1 (configuration not stated),"inconclusive: 44.7 µM [inhibitor, partial curve, poor fit]"
5,COc1ccccc1-c1nnc([C@H]2CCN(Cc3ccccn3)C2)o1,active: 35.5 µM
6,COc1cccc(-c2noc(CC3CCN(C(=O)c4ccc(C(C)C)cc4)CC3)n2)c1,"inconclusive: 44.7 µM [inhibitor, partial curve, poor fit]"
7,O=C(NCc1ccncc1)c1csc(N2CCN(c3ccccc3F)CC2)n1,inactive
8,COCCNC(=O)c1cc(-c2cccc(C(F)(F)F)c2)c2cccn2n1,"inconclusive: 3.98 µM [inhibitor, full curve, poor fit]"
9,Cn1c(Cn2cnc3c2C(C)(C)OC3(C)C)nnc1C1CC(N)C1 (configuration not stated),inactive
10,CN1CC2(CCN(c3nc(-c4ccccc4)no3)CC2)CC(c2ccccc2)C1=O (configuration not stated),"inconclusive: 10 µM [inhibitor, full curve, poor fit]"
11,Cc1cccc(S(=O)(=O)N2CCC3(C2)C(=O)N(C)c2ccccc23)c1 (configuration not stated),inactive
12,O=C(OCc1ccccc1)N1CCOCC12CCN(Cc1ccccc1F)CC2,"inconclusive: 56.2 µM [inhibitor, partial curve, poor fit]"
13,Cc1nnc2ccc(N3CCN(C(=O)Nc4ccc(Cl)cc4)CC3)nn12,"inconclusive: 50.1 µM [inhibitor, partial curve, poor fit]"
14,COc1ccc(-c2ccc(C(=O)NC3CC3)cc2)nn1,"inconclusive: 89.1 µM [inhibitor, partial curve]"
15,Cc1ccccc1C(=O)N1CCC(c2n[nH]c(=O)n2Cc2ccc(F)cc2)CC1,inactive
16,COc1ccc(S(=O)(=O)N2CCC(n3cnnc3C3CC3)CC2)cc1Cl,"inconclusive: 44.7 µM [inhibitor, partial curve, poor fit]"
17,Cc1ccc(-c2cc3c(=O)n(CCNC(=O)c4cccnc4)ccn3n2)c(C)c1,"inconclusive: 44.7 µM [inhibitor, partial curve, poor fit]"
18,CCOCCCNC(=O)CNC(=O)c1ccc(-c2cnc3ccccc3c2)cc1,inactive
19,CCOC(=O)C1CCN(C(=O)c2cn3cc(-c4ccc(C)cc4)sc3n2)CC1,"inconclusive: 63.1 µM [inhibitor, partial curve, poor fit]"
20,C[S+](=O)([O-])NC1CCCN(c2ccnc3ccnn23)C1 (configuration not stated),inactive
21,CN1CCN(C(=O)c2cc(-c3ccccc3C(F)(F)F)nc3c2cnn3C)CC1,inactive
22,COc1cc(C)sc1C(=O)NC1CC(c2cc(=O)[nH]c(C3CC3)n2)C1 (configuration not stated),inactive
23,CC(C)n1c(CNC(=O)Cn2nc3c(cc2=O)CCCC3)nc2ccccc21,"inconclusive: 44.7 µM [inhibitor, partial curve, poor fit]"

row,SMILES,Potency
1,CC1=NS(=O)(=O)N(Cc2ccccc2)C=C1C(=O)OCc1nc(-c2ccccc2Cl)no1,"inconclusive: 35.5 µM [inhibitor, full curve]"
2,Cc1ccc(CC(=O)N2CCCN(S(C)(=O)=O)c3ccccc32)cc1,active: 17.8 µM
3,Cn1cccc1CN1CCCC2(CC(Cc3ccccc3)=NO2)C1 (configuration not stated),"inconclusive: 89.1 µM [inhibitor, partial curve, poor fit]"
4,COc1ccc2cc(C3CN(C(=O)c4cccc(CO)n4)CCO3)ccc2c1 (configuration not stated),inactive
5,Cc1nc(C)c(C(=O)N2CC[C@H](CO)[C@H](NC(=O)C3CC3)C2)s1,inactive
6,COCC(=O)NC1CCCN(Cc2cccc(-c3ccc(C)c(Cl)c3)c2)C1 (configuration not stated),"inconclusive: 50.1 µM [inhibitor, partial curve, poor fit]"
7,O=C(Nc1cccc(Br)c1)c1cnc(-c2ccccc2)nc1-c1ccncc1,"inconclusive: 35.5 µM [inhibitor, partial curve]"
8,Cn1ccc2c(C(=O)NCc3cccnc3)nc(-c3cccc(N4CCOCC4)c3)cc21,"inconclusive: 56.2 µM [inhibitor, partial curve, poor fit]"
9,c1ccc(-c2noc(CC3CCOC4(CCN(Cc5cccnc5)CC4)C3)n2)cc1 (configuration not stated),"inconclusive: 44.7 µM [inhibitor, partial curve, poor fit]"
10,Cc1noc2c(Nc3ccc(N4CCOCC4)cc3)cc(-c3cccs3)nc12,"inconclusive: 25.1 µM [inhibitor, full curve, poor fit]"
11,Cc1ncccc1C(=O)N1CCC(COc2ccc3c(cnn3CC[S+](C)(=O)[O-])c2)CC1,"inconclusive: 39.8 µM [inhibitor, partial curve]"
12,CN(C)CCCOCC1(C)COc2ccc(C(=O)Nc3ccccc3)cc2N1 (configuration not stated),"inconclusive: 89.1 µM [inhibitor, partial curve, poor fit]"
13,Cc1cc(CNC(=O)[C@@H]2CCC[C@@H](N(C)C)CN(C)C(=O)C2)no1,inactive
14,CN(Cc1ccc2nonc2c1)C(=O)COc1ccc(Cl)cc1Cl,"inconclusive: 50.1 µM [inhibitor, partial curve, poor fit]"
15,Cc1cccc(CN2CCC3(CC2)Cc2ccccc2CNC3=O)n1,inactive
16,CCN(C(=O)CCC(=O)N1CCC(CCOc2ccccc2F)C1)c1ccccc1 (configuration not stated),"inconclusive: 44.7 µM [inhibitor, partial curve, poor fit]"
17,COc1ccccc1-c1cnc(Nc2ccncc2)c2c1CCO2,"inconclusive: 56.2 µM [inhibitor, partial curve, poor fit]"
18,COc1ccc(CC(=O)N2CCN(c3ccnc4ccnn34)CC2)cc1,"inconclusive: 89.1 µM [inhibitor, partial curve, poor fit]"
19,O=C(Cc1ccccc1)Nc1cc(-c2cccnc2)nn1-c1ccccc1,"inconclusive: 50.1 µM [inhibitor, single point]"
20,O=C(N1CCCN(c2cc(-c3ccc(Cl)cc3)[nH]n2)CC1)C1(c2ccccc2)CC1,active: 35.5 µM
21,COc1cc(C(=O)N2CCCn3nc(CO)cc3C2)c2ccccc2n1,inactive
22,COC(=O)CC(=O)N1CCC(C(=O)N2CCC(N3Cc4cccn4C3=O)CC2)CC1,inactive
23,O=C(c1cccs1)N1CCC2(CC1)N=C(c1cccc(Br)c1)NO2,inactive

row,SMILES,Potency
1,O=[S+]([O-])(c1ccccc1)N1CCN(Cc2ccccc2-c2cccnc2)CC1,"inconclusive: 31.6 µM [inhibitor, full curve, poor fit]"
2,COC[C@@H]1CN(C(=O)c2cnccn2)C[C@H]1c1ccccn1,inactive
3,CN1CCN(C(=O)C2(N(C)CCc3ccccc3)Cc3ccccc3C2)CC1,"inconclusive: 89.1 µM [inhibitor, single point]"
4,CCc1cc(=O)n(CC(=O)Nc2ccc(C)cc2Cl)c(N2CCOCC2)n1,"inconclusive: 50.1 µM [inhibitor, partial curve, poor fit]"
5,CCOc1cc2c(cn1)NCCN(Cc1ccccc1O)C2,inactive
6,O=C(c1ccccc1)N1CCCN(c2cc(-c3ccc(Cl)cc3)[nH]n2)CC1,"inconclusive: 44.7 µM [inhibitor, partial curve, poor fit]"
7,COc1ccc(Cl)cc1-c1ncc2c(n1)OCCN(c1ccccc1)C2=O,active: 39.8 µM
8,Cc1ccn(CCC(=O)N[C@@H]2COCC[C@@H]2Oc2cccc(F)c2)n1,inactive
9,CCc1noc(-c2cn(C3CCN(C(=O)Cc4ccc(C)cc4)CC3)nn2)n1,"inconclusive: 28.2 µM [inhibitor, full curve, poor fit]"
10,Cc1ccccc1-c1cc(C(=O)NCCC(N)=O)c2c(c1)N(C)CCO2,"inconclusive: 89.1 µM [inhibitor, partial curve]"
11,Cc1cc(C)c(S(=O)(=O)N2CC(c3nc(-c4ccncc4)no3)C2)c(C)c1,"inconclusive: 39.8 µM [inhibitor, partial curve, poor fit]"
12,O=C(NCCc1ccccc1)N1CC(Oc2ccccc2-c2nc(-c3ccccc3)no2)C1,active: 28.2 µM
13,Cc1ccc2c(c1)c(Cn1cnc(-c3ccccc3)c1-c1cnc[nH]1)nn2C,"inconclusive: 56.2 µM [inhibitor, partial curve, poor fit]"
14,C=CCN1C[C@@H]2C[C@@H](C(=O)NC)N(C(=O)Cc3ccccc3)c3cccc(c32)C1=O,"inconclusive: 31.6 µM [inhibitor, partial curve, poor fit]"
15,O=C(NC1CC1)C1CCN(C(=O)c2ncn3c2COC(c2ccc(F)cc2)C3)CC1 (configuration not stated),inactive
16,COc1ccc(C2NC(=O)N(CC(=O)N3CCCCCC3)C3=C2C(=O)OC3)cc1 (configuration not stated),inactive
17,COc1ccc(-c2ccccc2C(=O)NC2CCOCC2)nn1,inactive
18,Cc1cc(CNC(=O)C2CC(=O)N(C(C)(C)C)C2)n(C)n1 (configuration not stated),inactive
19,C[C@@H](c1ccccc1)N1C(=O)[C@@H]2CN(C(=O)c3ccccc3)CCN2C1=O,"inconclusive: 112 µM [inhibitor, single point]"
20,N#Cc1cccc(NC(=O)N2CCc3c(nc(-c4ccc(F)cc4)[nH]c3=O)C2)c1,"inconclusive: 50.1 µM [inhibitor, single point]"
21,CN(Cc1ccccc1)Cc1cn([C@H]2CO[C@H]3[C@@H]2OC[C@@H]3NCc2ccccc2)nn1,"inconclusive: 100 µM [inhibitor, partial curve, poor fit]"

# — PubChem BioAssay AID1345082 (National Center for Advancing Translational Sciences (NCATS), 2018)
